Laboratory results from the supplement of paper PMC5919970.
Counter-ions that a name gives are not always drawn. Whole data set: some 2,000 compounds, median “fractional viability relative to vehicle” near 0.91, cut for the lowest 2% near 0.045. Some of the results follow.

System: TYKNU
Experiment: fractional viability relative to vehicle; TYKNU is a high-grade serous ovarian cancer line; higher = less growth inhibition
Conditions: 72 h
Procedure, shortened: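 Drug treatment lasted 72 h, with cells grown at 37 °C in 5% CO2 in RPMI 1640 supplemented with 10% FBS. Beforehand, TYKNU control cells or their lentiCRISPRv2 knockout derivatives had been seeded at 500 cells per well into drug-stamped 384-well plates carrying a ~2100-compound library at 2 or 10 μM, in duplicate. Viability came from Cell Titer Glo luminescence, with averaged duplicate treatment wells normalised to duplicate control wells in the same plate position.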

[1] = 2uM, genotype: DNM1L knockout (sgDNM1L #1)
[2] = 2uM, genotype: sgCTRLA1 (non-targeting control)
[3] = 10uM, genotype: DNM1L knockout (sgDNM1L #1)
[4] = 10uM, genotype: sgCTRLA1 (non-targeting control)

| SMILES | fractional viability [1] | fractional viability [2] | fractional viability [3] | fractional viability [4] |
| --- | --- | --- | --- | --- |
| CCNC(=O)c1noc(-c2cc(C(C)C)c(O)cc2O)c1-c1ccc(CN2CCOCC2)cc1 | 0.279 | 0.236 | 0.273 | 0.233 |
| CC(=O)C1=C(O)C=C2Oc3c(C(C)=O)c(O)c(C)c(O)c3C2(C)C1=O (single isomer, unassigned; (+)) [(+)-Usniacin] | 1.07 | 1.14 | 0.984 | 1.17 |
| CNCc1ccc(-c2[nH]c3cc(F)cc4c3c2CCNC4=O)cc1 | 0.971 | 1.05 | 0.928 | 1.02 |
| CCCNC(C)C(=O)Nc1c(C)csc1C(=O)OC (stereo unspecified) [Articaine HCl] | 1.06 | 1.01 | 0.891 | 1.02 |
| COc1ccc(CCc2nc3cc(-c4c(C)noc4C)ccc3n2C[C@H](C)N2CCOCC2)cc1Cl | 0.663 | 1.08 | 0.45 | 0.701 |
| O=C(O)c1cc2cccc([N+](=O)[O-])c2[nH]1 | 0.859 | 1.09 | 0.957 | 0.802 |
| O=C(O)c1ccc(-n2nc(-c3ccccc3O)nc2-c2ccccc2O)cc1 [Deferasirox] | 0.891 | 0.964 | 0.445 | 0.433 |
| NCCS [Cysteamine HCl] | 0.825 | 1.09 | 0.739 | 1.1 |
| COCCOC(=O)C1=C(C)NC(C)=C(C(=O)OC(C)C)C1c1cccc([N+](=O)[O-])c1 (stereo unspecified) [Nimodipine] | 0.892 | 1.1 | 0.799 | 1.01 |
| COc1c(C)c2c(c(O)c1C/C=C(\C)CCC(=O)OCCN1CCOCC1)C(=O)OC2 [Mycophenolate Mofetil] | 0.405 | 0.466 | 0.293 | 0.233 |
| CN1C(C(=O)Nc2ccccn2)=C(O)c2ccccc2S1(=O)=O [Piroxicam] | 0.997 | 1.12 | 1.11 | 0.993 |
| O=C(NCc1cccc(O)c1)Nc1nc(-c2ccncc2)cs1 | 0.821 | 1.08 | 0.688 | 0.914 |
| COC(=O)CCc1ccc(OCC(O)CNC(C)C)cc1 (stereo unspecified) [Esmolol HCl] | 0.975 | 1.09 | 0.829 | 1.07 |
| CC1(C)CC(=O)c2c(C(F)(F)F)nn(-c3ccc(C(N)=O)c(N[C@H]4CC[C@H](OC(=O)CN)CC4)c3)c2C1 | 0.976 | 1.16 | 0.981 | 1.09 |
| CC1(C)[C@@H](O)CC[C@]2(C)[C@H]3C(=O)C=C4[C@@H]5C[C@@](C)(C(=O)O)CC[C@]5(C)CC[C@@]4(C)[C@]3(C)CC[C@@H]12 [Enoxolone] | 0.93 | 1.05 | 0.839 | 0.924 |
| C[C@H]1COC2(CCN(c3nc(=O)c4cc(C(F)(F)F)cc([N+](=O)[O-])c4s3)CC2)O1 (racemic) [BTZ043 Racemate] | 1.15 | 1.05 | 1.08 | 0.947 |
| Oc1ccc(Cc2nc3c(Cc4ccccc4)nc(-c4ccc(O)cc4)cn3c2O)cc1 [Coelenterazine] | 0.928 | 1.05 | 0.977 | 0.839 |
| O=C(O)C[C@H](O)C[C@H](O)/C=C/c1c(C2CC2)nc2ccccc2c1-c1ccc(F)cc1 [Pitavastatin Calcium] | 0.329 | 0.391 | 0.182 | 0.216 |
| Cc1ccc(C)c(OCCCC(C)(C)C(=O)O)c1 [Gemfibrozil] | 0.919 | 1.04 | 0.894 | 1.01 |
| O=C(CCCN1CCC(O)(c2ccc(Cl)cc2)CC1)c1ccc(F)cc1 [Haloperidol] | 1.09 | 1.27 | 0.762 | 0.871 |

| SMILES | fractional viability [1] | fractional viability [2] | fractional viability [3] | fractional viability [4] |
| --- | --- | --- | --- | --- |
| COc1cc2c(cc1OC)[C@@H]1Cc3ccc(OC)c(OC)c3CN1CC2 [Rotundine] | 1.17 | 1.06 | 1.18 | 1.01 |
| C[C@H](NC(=O)CCc1nc2ccccc2c(=O)[nH]1)c1ccccc1 | 0.716 | 1.04 | 0.813 | 0.801 |
| NCC(=O)CCC(=O)O [5-Aminolevulinic acid HCl] | 0.872 | 1.15 | 0.799 | 1.03 |
| CN1CCC(CNc2ccc3ncc(-c4cccc(OC(F)(F)F)c4)n3n2)CC1 [SGI-1776 free base] | 0.734 | 0.829 | 0.0544 | 0.0567 |
| Cc1ccc(Sc2ccccc2N2CCNCC2)c(C)c1 | 0.789 | 0.989 | 0.073 | 0.0798 |
| CNC(CC(=O)O)C(=O)O [NMDA (N-Methyl-D-aspartic acid)] | 0.929 | 0.971 | 0.812 | 1.02 |
| C[C@H](NC(=O)Cc1cc(F)cc(F)c1)C(=O)N[C@H](C(=O)OC(C)(C)C)c1ccccc1 | 0.935 | 1.17 | 0.856 | 1.1 |
| Cc1cc(Nc2ccc(NC(=O)c3ccc(Nc4ccnc5ccccc45)cc3)cc2)nc(N)n1 | 0.0197 | 0.0121 | 0.0121 | 0.00969 |
| CN1C2=CC(=O)/C(=N\NC(N)=O)C=C2CC1S(=O)(=O)O (stereo unspecified) [Carbazochrome sodium sulfonate (AC-17)] | 1.17 | 1.13 | 1.21 | 1.04 |
| C[C@]12CC[C@@H]3c4ccc(O)cc4CC[C@H]3[C@@H]1CC[C@@H]2OC(=O)CCC1CCCC1 [Estradiol Cypionate] | 1.09 | 1.14 | 0.417 | 0.805 |
| C[C@H](NC(=O)[C@@H](O)c1cc(F)cc(F)c1)C(=O)N[C@@H]1C(=O)N(C)c2ccccc2-c2ccccc21 | 1.19 | 1.12 | 0.924 | 0.966 |
| CC(C)N(CCCNC(=O)Nc1ccc(C(C)(C)C)cc1)C[C@H]1O[C@@H](n2ccc3c(N)ncnc32)[C@H](O)[C@@H]1O | 0.81 | 1.04 | 0.754 | 0.766 |
| O=c1cc(-c2ccc(O)c(O)c2)oc2cc(O)cc(O)c12 [Luteolin] | 1 | 1.11 | 0.934 | 0.982 |
| CC(=O)Nc1ccc(NC(=S)NC(=O)c2ccc(C(C)(C)C)cc2)cc1 [Tenovin-1] | 0.152 | 0.144 | 0.118 | 0.0954 |
| O=C(NOCCO)c1ccc2cncn2c1Nc1ccc(I)cc1F | 0.235 | 0.202 | 0.142 | 0.114 |
| CCOc1cc(C(=O)N2CCC(N3CCN(C)CC3)CC2)ccc1Nc1ncc2c(n1)N(C1CCCC1)c1ccccc1C(=O)N2C | 0.546 | 0.536 | 0.0647 | 0.0743 |
| O=C(Cc1ccc(-c2ccc(OCCN3CCOCC3)cc2)cn1)NCc1ccccc1 | 0.104 | 0.121 | 0.126 | 0.113 |
| Nc1ncn([C@H]2C[C@H](O)[C@@H](CO)O2)c(=O)n1 [Decitabine] | 1.06 | 0.994 | 0.942 | 0.772 |
| O=C1Cc2cc(CCN3CCN(c4nsc5ccccc45)CC3)c(Cl)cc2N1 [Ziprasidone HCl] | 1.32 | 1.16 | 0.961 | 0.903 |
| CC(C)/N=c1\cc2n(-c3ccc(Cl)cc3)c3ccccc3nc-2cc1Nc1ccc(Cl)cc1 [Clofazimine] | 1.31 | 1.19 | 1.12 | 1.14 |

| SMILES | fractional viability [1] | fractional viability [2] | fractional viability [3] | fractional viability [4] |
| --- | --- | --- | --- | --- |
| CC1CCc2c(N3CCC(O)CC3)c(F)cc3c(=O)c(C(=O)O)cn1c23 (stereo unspecified) [Nadifloxacin] | 1.15 | 1.21 | 0.868 | 1.02 |
| CCCN(CCc1cccs1)[C@H]1CCc2c(O)cccc2C1 [Rotigotine] | 0.851 | 1.11 | 0.615 | 1.01 |
| Clc1ccc(COC(Cn2ccnc2)c2ccc(Cl)cc2Cl)c(Cl)c1 (stereo unspecified) [Miconazole Nitrate] | 0.949 | 0.989 | 0.529 | 0.799 |
| Clc1ccc(COC(Cn2ccnc2)c2ccc(Cl)cc2Cl)c(Cl)c1 (stereo unspecified) [Miconazole] | 0.807 | 1.09 | 0.396 | 0.77 |
| Cc1cc(=O)n(-c2ccccc2)n1C [Antipyrine] | 1.1 | 1.16 | 0.859 | 1.07 |
| CO[C@H]1O[C@@H]2O[C@@]3(C)CC[C@H]4[C@H](C)CC[C@@H]([C@H]1C)[C@@]24OO3 [Artemether] | 0.731 | 0.868 | 0.592 | 0.8 |
| CC(C)(C)C[C@@H]1N[C@@H](C(=O)N[C@H]2CC[C@H](O)CC2)[C@H](c2cccc(Cl)c2F)[C@]12C(=O)Nc1cc(Cl)ccc12 | 0.274 | 0.277 | 0.259 | 0.225 |
| O=c1c2ccccc2oc2ccccc12 [Xanthone] | 0.957 | 1.15 | 0.75 | 1.1 |
| NC12CC3CC(CC(C3)C1)C2 [Amantadine HCl] | 1.02 | 1.03 | 0.965 | 1.02 |
| Cn1ncc(Cl)c1-c1cc(C(=O)N[C@H](CN)Cc2cccc(F)c2)sc1Cl | 0.644 | 0.826 | 0.455 | 0.439 |
| Cc1c(Cc2ccc3ccccc3n2)c2cc(F)ccc2n1CC(=O)O | 1.09 | 1.05 | 0.873 | 1.1 |
| CO[C@@H](C(=O)N1Cc2[nH]nc(NC(=O)c3ccc(N4CCN(C)CC4)cc3)c2C1)c1ccccc1 | 0.503 | 0.521 | 0.486 | 0.427 |
| CN1CCN(C2=Nc3cc(Cl)ccc3Nc3ccccc32)CC1 [Clozapine] | 0.997 | 1.05 | 0.919 | 0.877 |
| C=CC(=O)N1CCC(Oc2cc3c(Nc4ccc(Cl)c(Cl)c4F)ncnc3cc2OC)CC1 [Poziotinib (HM781-36B)] | 0.879 | 0.865 | 0.528 | 0.464 |
| Brc1ccc([C@H]2CN3CCSC3=N2)cc1 [(-)-p-Bromotetramisole Oxalate] | 0.693 | 0.908 | 0.866 | 0.668 |
| CCCCCCCCCCC[C@@H](C[C@@H]1OC(=O)[C@H]1CCCCCC)OC(=O)[C@H](CC(C)C)NC=O [Orlistat] | 0.87 | 0.965 | 0.499 | 0.807 |
| CC1(C)CCC(CN2CCN(c3ccc(C(=O)NS(=O)(=O)c4ccc(NCC5CCOCC5)c([N+](=O)[O-])c4)c(Oc4cnc5[nH]ccc5c4)c3)CC2)=C(c2ccc(Cl)cc2)C1 | 0.697 | 0.921 | 0.852 | 0.706 |
| CS(=O)(=O)c1cccc(CNc2nc(Nc3ccc4c(c3)CCC(=O)N4)ncc2C(F)(F)F)c1 | 0.995 | 0.99 | 0.579 | 0.534 |
| Cc1ccc(NC(=O)c2ccc(CN3CC[C@H](N(C)C)C3)c(C(F)(F)F)c2)cc1Nc1nccc(-c2cncnc2)n1 [Bafetinib (INNO-406)] | 0.684 | 0.569 | 0.0871 | 0.0998 |
